# Results: PubChem BioAssay AID485344 (National Center for Advancing Translational Sciences (NCATS), 2010)
# Out of some 340,000 compounds screened, about 6,900 (2%) were called active. Cut-off read from the data, not from the text of the source: active = inhibition above about 30%; inactive = below that, where a call was filed. Only a part is listed here, and it is no random draw. The source gives no active or inactive call for entries shown without one.
# Target: D(2) dopamine receptor (Homo sapiens) (UniProt P14416)
# Assay: HTS Assay for Allosteric Antagonists of the Human D2 Dopamine Receptor: Primary Screen for Antagonists; note: 0% is about no effect
# Details: HEK293 TREx D2 cells, calcium flux, dopamine EC80; at 10 µM; stronger effect = higher value
# How it was run: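 Antagonism is scored as inhibition of an EC80 dopamine-evoked calcium signal in a force-coupled, tetracycline-inducible HEK293 T-REx D2 line, with compound present 180 s before agonist.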
# Sequence of UniProt P14416 (P14416 whole entry, looked up): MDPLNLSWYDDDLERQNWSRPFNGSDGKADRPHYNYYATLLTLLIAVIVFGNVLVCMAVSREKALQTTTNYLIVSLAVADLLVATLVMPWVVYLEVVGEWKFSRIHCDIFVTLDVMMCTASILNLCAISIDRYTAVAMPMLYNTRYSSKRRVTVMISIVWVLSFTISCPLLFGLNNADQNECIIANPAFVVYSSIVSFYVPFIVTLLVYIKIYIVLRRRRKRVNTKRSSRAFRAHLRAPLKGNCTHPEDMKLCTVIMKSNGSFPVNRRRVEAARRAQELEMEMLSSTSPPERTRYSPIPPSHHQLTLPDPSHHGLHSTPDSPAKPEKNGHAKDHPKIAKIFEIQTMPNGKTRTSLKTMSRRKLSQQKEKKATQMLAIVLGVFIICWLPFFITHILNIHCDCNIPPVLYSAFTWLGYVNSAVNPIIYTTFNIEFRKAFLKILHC
row,Structure (SMILES),inhibition
1,CCc1ccc(C(=O)c2cn(CC(=O)NC3CCCCC3)c3nc(C)ccc3c2=O)cc1,-4.13%
2,O=C(c1ccccc1)n1nc(-c2ccccc2)nc1NCc1ccc(F)cc1,-0.289%
3,COc1ccc(-n2nc(C(=O)N3CCCC(C)C3)c3c4ccccc4n(C)c3c2=O)cc1 (stereo not drawn),-9.16%
4,CC(=O)N1CCC(C(=O)NCCOc2cccc(C)c2)CC1,active: 34.6%
5,Cn1c2ccccc2c2c(C(=O)N3CCN(c4ccccn4)CC3)cn(C3CCCC3)c(=O)c21,active: 31.1%
6,COc1ccc(-c2cc(C(F)(F)F)nc(S(C)(=O)=O)n2)cc1,-6.16%
7,CCOC(=O)c1sc2ccccc2c1S(=O)(=O)Nc1ccc(CC)cc1,-17.4%
8,CCOc1ccc(N2CC(NC(=O)/C=C\c3ccc4c(c3)OCO4)CC2=O)cc1 (stereo not drawn),-2.02%
9,COc1ccc(-n2ccnc(NCc3ccccc3OC)c2=O)cc1,4.08%
10,CCCNC(=S)NC1CC2CCCC(C1)N2Cc1ccc(F)cc1 (stereo not drawn),active: 80.6%
11,O=C(NCCn1cc(SCc2ccccc2Cl)c2ccccc21)c1cccs1,-2.71%
12,O=C(Nc1ccccc1Cl)C1CCN(c2nc3ccccc3nc2C(F)(F)F)CC1,-2.6%
13,Cn1c(=O)c2c(-c3cccc(Br)c3)n(C(C)(C)CO)cc2n(C)c1=O,0.7%
14,CCC(C(=O)NCc1ccco1)n1nc(C)c2c(C)n(-c3ccc(C)cc3)nc2c1=O (stereo not drawn),0.424%
15,Cc1cccc(C(=O)NCC(=O)OCc2cc(=O)n3nc(CC(C)C)sc3n2)c1,-8.33%
16,CN(C)c1ccc(CNC(=O)c2cccc(NC(=O)N3CCSc4ncccc43)c2)cc1,-1.17%
17,COc1cccc(C(=O)N2CCN(CCc3ccncc3)CC2)c1,-9.26%
18,O=C1N(Cc2ccccc2)c2ccc(Cl)cc2C1(O)c1c[nH]c2ccccc12 (stereo not drawn),-1.82%
19,Cc1ccc(NS(=O)(=O)c2ccc3c(c2)n(C)c(=O)n3C)cc1C,1.23%
20,Cc1cc2nc(-c3ccc(OCc4ccccc4Cl)cc3)cc(C(F)(F)F)n2n1,7.42%
21,COc1ccccc1NC(=O)Cn1c(SCC(=O)N(C)c2ccccc2)nc2ccccc21,-9.09%
22,Cc1ccc(S(=O)(=O)NC2(C(F)(F)F)NC(=O)N(CCc3ccccc3)C2=O)cc1 (stereo not drawn),0.736%
23,COc1cccc2c1cc1c(=O)n(CC(=O)N3CCN(c4ccc(Cl)cc4)CC3)nc(C)n12,6.64%
24,Fc1ccc(Nc2ncnc3onc(-c4cccc(Cl)c4)c23)c(F)c1,14.2%

row,Structure (SMILES),inhibition
1,CCc1ccccc1NC(c1nnc(-c2cccc(F)c2)o1)c1ccc(F)cc1Cl (stereo not drawn),2.39%
2,Cc1ccc2scc(N3CCc4ccccc4C3)c(=O)c2c1,13.6%
3,COc1cc(OC)cc(-c2nc3nc(C)c(CCC(=O)Nc4ccc(C)c(C)c4)c(C)n3n2)c1,0.0014%
4,Cc1ccc(C)c(N2CCN(C(=O)Cn3ncc4c(=O)oc5ccccc5c43)CC2)c1,-15.3%
5,CCN1CCN(Cc2nc3cc(NC(=O)c4cc(OC)c(OC)c(OC)c4)ccc3n2CC)CC1,-8.41%
6,Cc1ccc(CNC(=O)N2CCC(CN3CCC(C)CC3)CC2)cc1,-10.1%
7,COc1ccc(S(=O)(=O)n2nc(-c3ccco3)nc2NCc2ccc(N(C)C)cc2)cc1,7.67%
8,COc1ccc(S(=O)(=O)c2cn(CC(=O)Nc3cc(C)ccc3C)c3ccccc3c2=O)cc1,-1.57%
9,CCC1CN(C(=O)NCc2ccc(C)cc2)c2cc(Cl)ccc2O1 (stereo not drawn),18.1%
10,O=[N+]([O-])c1cccc(-c2ccc(CN3CCCCC3)o2)c1,active: 80.7%
11,CC(=O)c1ccc(NC(=O)Cn2cnc3nc4c(cc3c2=O)CC(C)CC4)cc1 (stereo not drawn),-14.6%
12,CCOc1cccc(C2c3[nH]c4ccccc4c3CCN2C(=O)c2ccccc2F)c1 (stereo not drawn),0.796%
13,CC(C)(C)c1ccc(C(=O)NC(=S)NNC(=O)c2cccs2)cc1,active: 56.4%
14,CCOc1ccccc1C(=O)Nc1ccc(S(=O)(=O)Nc2onc(C)c2C)cc1,4.21%
15,CCOC(=O)c1c(SCC(=O)Nc2nc3ccccc3s2)nc(=O)[nH]c1C,-8.58%
16,CCCCC(=O)Oc1ccc2oc(-c3ccc(OC)cc3)cc(=O)c2c1,11%
17,Cc1ccc(F)cc1NC(=O)CCc1c(C)nn(-c2ccc(N3CCCC3)nn2)c1C,5.76%
18,CCOc1cc(CNC(=O)c2ccc(Cn3c(=O)c4cccn4c4cccnc43)cc2)ccc1OC,0.0476%
19,CCOC(=O)c1cnc2cc(C(F)(F)F)ccc2c1N1CCN(c2cccc(Cl)c2)CC1,-4.44%
20,Cc1ccc(NC(=O)CSc2nc3ccc(NC(=O)c4cccs4)cc3s2)cc1,-12%
21,CN(Cc1ccc(F)cc1)S(=O)(=O)c1nnc(NC(=O)c2ccccc2Br)s1,-7.57%
22,Cc1ccc(NC(=O)CNC(=O)Cn2c(C)cc3ccccc3c2=O)cc1F,1.06%
23,Cc1ccc(-n2nc3c(=O)n(CCCC(=O)NCc4ccccc4C)nc(C)c3c2C)cc1,-1.08%
24,COCCNC(=O)c1c(-c2ccccc2)c(-c2ccccc2)nn(C)c1=O,16.3%
